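A five-concentration, 48-hour dose response in 96-well plates underlies each endpoint, interpolated linearly between surrounding concentrations. The concentration for full growth arrest is given as TGI.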 Not every entry of the source has a single result; some have several. The other results are left out here. An entry can have further records. The tests behind the records often covered other concentration ranges, not given here; some values may only mark the edge of a range.
What was measured:
Assay in all cases: NCI tumour cell line growth inhibition, 48 h
[1] = test system: A498 renal
[2] = test system: LOX IMVI melanoma
[3] = test system: UO-31 renal
[4] = test system: SNB-75 CNS
[5] = test system: M14 melanoma
[6] = test system: SW-620 colon
[7] = test system: OVCAR-8 ovarian
[8] = test system: HT29 colon
[9] = test system: K-562 leukemia
[10] = test system: SF-295 CNS
[11] = test system: DU-145 prostate
[12] = test system: A549 NSCLC
[13] = test system: EKVX NSCLC
[14] = test system: SK-MEL-5 melanoma
[15] = test system: SNB-19 CNS
[16] = test system: DMS 114 small cell lung
[17] = test system: SK-MEL-2 melanoma
[18] = test system: HCT-116 colon
[19] = test system: 786-0 renal
[20] = test system: NCI/ADR-RES ovarian
[21] = test system: DMS 273 small cell lung
[22] = test system: SNB-78 CNS
[23] = test system: OVCAR-4 ovarian
[24] = test system: DLD-1 colon
[25] = test system: CCRF-CEM leukemia
[26] = test system: MALME-3M melanoma
[27] = test system: SK-OV-3 ovarian
[28] = test system: NCI-H460 lung
[29] = test system: HL-60(TB) leukemia
[30] = test system: MCF7 breast
[31] = test system: COLO 205 colon
[32] = test system: HOP-92 NSCLC
[33] = test system: MDA-MB-231 breast
[34] = test system: SF-539 CNS
[35] = test system: P388/ADR leukemia
[36] = test system: NCI-H226 lung
[37] = test system: MOLT-4 leukemia
[38] = test system: IGROV1 ovarian
[39] = test system: M19-MEL melanoma
[40] = test system: HCT-15 colon
[41] = test system: OVCAR-3 ovarian
[42] = test system: CAKI-1 renal
[43] = test system: RPMI-8226 leukemia
[44] = test system: NCI-H23 lung
[45] = test system: SK-MEL-28 melanoma
[46] = test system: UACC-62 melanoma
[47] = test system: SN12K1 renal
[48] = test system: HS 578T breast
[49] = test system: SN12C renal
[50] = test system: KM12 colon
[51] = test system: RXF 393 renal
[52] = test system: HOP-62 NSCLC
[53] = test system: U251 CNS
[54] = test system: HCC-2998 colon
[55] = test system: HOP-18 NSCLC
[56] = test system: P388 leukemia
[57] = test system: SF-268 CNS
[58] = test system: NCI-H522 lung

CO[C@H](/C(C)=C/C=C/C(C)=C/c1coc(C)n1)[C@H](C)[C@H]1C[C@@H](O)[C@@]2(C)O[C@H]2/C=C/[C@@H](C)[C@@H]2C[C@@H](CC(=O)O2)C[C@H]2O[C@@H]2C(=O)O1
TGI [1]: 797 nM [mean of 2 tests] and 32.3 nM [mean of 6 tests] and 0.00586 nM [mean of 7 tests] and < 31.6 nM [mean of 8 tests] | TGI [2]: 0.5 nM [1 test] and 23.2 µM [mean of 3 tests] and 877 nM, 3.44 µM [mean of 5 tests] and 0.3 nM [mean of 6 tests] | TGI [3]: 5 µM, 50 µM [mean of 3 tests] and 54.5 µM [mean of 8 tests] | TGI [4]: 0.0464 nM, 500 nM, 150 nM, 8.9 µM | TGI [5]: 0.63 nM and 3.52 µM | TGI [6]: 0.5 nM [1 test] and 50 µM [mean of 3 tests] and 2.42 µM [mean of 5 tests] and 63.2 µM [mean of 8 tests] | TGI [7]: 0.5 nM [1 test] and 500 nM [mean of 2 tests] and 256 nM [mean of 5 tests] and 1.93 µM [mean of 7 tests] and 0.0271 nM [mean of 9 tests] | TGI [8]: 0.5 nM [1 test] and 23.2 nM [mean of 3 tests] and 0.000445 nM [mean of 7 tests] | TGI [9]: 0.5 nM, 5 µM, 23.2 µM, 30.1 µM | TGI [10]: 0.5 nM [1 test] and 500 nM [mean of 2 tests] and < 46.4 nM [mean of 6 tests] and 0.000575 nM [mean of 8 tests] | TGI [11]: > 100 µM [mean of 2 tests] and 0.428 nM [mean of 4 tests] | TGI [12]: 0.5 nM, 0.78 nM, 1.26 µM, 50 µM, 48.6 µM | TGI [13]: 0.873 nM, 526 nM, 50 µM, 65.1 µM | TGI [14]: 0.5 nM [1 test] and 3.88 nM, 2.32 µM [mean of 3 tests] and 0.00132 nM [mean of 6 tests] | TGI [15]: 2.32 µM [mean of 3 tests] and 1.03 µM, 4.26 µM [mean of 6 tests] and 0.192 nM [mean of 9 tests] | TGI [16]: 0.0872 nM, 0.00398 nM, 23.2 nM, < 215 nM | TGI [17]: 0.0193 nM, 29.2 nM, 50 µM, 187 nM | TGI [18]: 0.5 nM [1 test] and 11.4 µM [mean of 3 tests] and 1.52 µM [mean of 5 tests] and 1.11 µM [mean of 6 tests] and 0.266 nM [mean of 8 tests] | TGI [19]: 0.624 nM and 10.8 µM | TGI [20]: 0.5 nM [1 test] and 11.1 nM [mean of 3 tests] and > 80.4 µM [mean of 4 tests] and 14.8 nM [mean of 5 tests] and 0.0718 nM [mean of 9 tests] | TGI [21]: 0.5, 91.3, 569, 18.1 nM | TGI [22]: 0.5 nM [1 test] and 46.6 µM [mean of 2 tests] and 232 nM, 26.4 µM [mean of 3 tests] | TGI [23]: 0.474 nM, 419 nM, 50 µM, 60.7 µM | TGI [24]: 0.5 nM, 0.251 nM, 911 nM, 35.3 µM, 12 µM | TGI [25]: < 5e-05 nM [1 test] and 500 nM [mean of 2 tests] and 367 nM [mean of 5 tests] and 3.92 µM [mean of 7 tests] and 0.144 nM [mean of 9 tests] | TGI [26]: 50 nM, 50 µM, 6.55 µM | TGI [27]: 0.279 nM, 126 nM, 595 nM, 2.79 µM | TGI [28]: 0.5 nM [1 test] and 579 nM [mean of 3 tests] and 16.3 nM [mean of 5 tests] and 145 nM [mean of 7 tests] and 0.131 nM [mean of 8 tests] | TGI [29]: < 5e-05 nM [1 test] and 228 nM [mean of 7 tests] and 0.000107 nM [mean of 8 tests] | TGI [30]: 0.5 nM [1 test] and 11.4 µM [mean of 3 tests] and 26.1 µM [mean of 5 tests] and 1.61 µM [mean of 6 tests] | TGI [31]: 0.5, 0.00708, 18.1, 239, 27 nM | TGI [32]: 0.5 nM [1 test] and 1.48 µM [mean of 2 tests] and 0.776 nM [mean of 4 tests] and 0.087 nM [mean of 5 tests] and 215 nM [mean of 6 tests] | TGI [33]: 17.7 nM [1 test] and 0.034 nM [mean of 4 tests] | TGI [34]: < 5e-05 nM [1 test] and 5.15 nM [mean of 3 tests] and 0.000149 nM [mean of 9 tests] | TGI [35]: 0.5 nM [1 test] and 809 nM, 700 nM [mean of 2 tests] and 142 nM [mean of 4 tests] and 0.0253 nM [mean of 5 tests] | TGI [36]: 4.9 µM [mean of 2 tests] and 14.6 nM [mean of 3 tests] and < 12.2 nM [mean of 7 tests] and 0.00259 nM [mean of 9 tests] | TGI [37]: < 5e-05 nM [1 test] and 108 nM [mean of 3 tests] and 50 nM [mean of 4 tests] and 7.77 µM [mean of 7 tests] and 0.305 nM [mean of 9 tests] | TGI [38]: 50 µM [mean of 3 tests] and 793 nM [mean of 5 tests] and 12.2 µM [mean of 8 tests] and 0.863 nM [mean of 9 tests] | TGI [39]: 0.5 nM, 5 µM, 50 µM, 20.6 µM | TGI [40]: 0.5 nM [1 test] and 4.36 µM [mean of 3 tests] and 22.4 nM, 6.02 µM [mean of 6 tests] and 0.143 nM [mean of 9 tests] | TGI [41]: 0.5 nM [1 test] and 500 nM [mean of 2 tests] and < 89.4 nM [mean of 4 tests] and 3.16 nM [mean of 5 tests] | TGI [42]: 0.5 nM [1 test] and 50 µM [mean of 2 tests] and 586 nM [mean of 5 tests] and 0.068 nM, 163 nM [mean of 6 tests] | TGI [43]: < 5e-05 nM [1 test] and 1.26 µM [mean of 3 tests] and 1.97 µM [mean of 4 tests] and 10.9 µM [mean of 7 tests] | TGI [44]: 50 nM, 500 nM [mean of 2 tests] and 907 nM [mean of 4 tests] and 0.156 nM [mean of 8 tests] | TGI [45]: 50 µM [mean of 3 tests] and 5 µM [mean of 4 tests] and > 68.6 µM [mean of 6 tests] | TGI [46]: 0.356 nM, 232 nM, 50 µM, 469 nM | TGI [47]: 0.5 nM [1 test] and 500 nM [mean of 2 tests] | TGI [48]: 0.0172 nM and > 68.8 µM | TGI [49]: 1.84 µM [mean of 3 tests] and 1.98 µM [mean of 5 tests] and 29.4 µM [mean of 8 tests] and 0.285 nM [mean of 9 tests] | TGI [50]: 0.5 nM [1 test] and 1.91 µM [mean of 2 tests] and 2.07 µM [mean of 4 tests] and 50.7 nM [mean of 6 tests] and 0.047 nM [mean of 8 tests] | TGI [51]: < 5e-05 nM, 50 µM [1 test] and 229 nM [mean of 5 tests] and 0.000696 nM [mean of 6 tests] | TGI [52]: 33.4 µM [mean of 2 tests] and 2.68 nM [mean of 4 tests] and 0.0266 nM [mean of 6 tests] and 57.3 nM [mean of 8 tests] | TGI [53]: 0.5 nM [1 test] and 575 nM [mean of 3 tests] and 1.83 µM [mean of 5 tests] and 0.139 nM, 1.11 µM [mean of 6 tests] | TGI [54]: 0.000719, 2.04, 603, 101 nM | TGI [55]: 5 µM, > 50 µM, 73 µM | TGI [56]: < 5e-05 nM [1 test] and 24.4 nM [mean of 2 tests] and 1.12 µM [mean of 3 tests] and 0.066 nM [mean of 4 tests] and 107 nM [mean of 5 tests] | TGI [57]: 50 µM [mean of 2 tests] and 3.47 µM [mean of 5 tests] and 13.1 µM [mean of 8 tests] and 0.392 nM [mean of 9 tests] | TGI [58]: < 5e-05 nM [1 test] and 500 nM [mean of 2 tests] and 0.000692 nM [mean of 5 tests] and 2.32 nM [mean of 6 tests]

Reference: PubChem BioAssay (NCI)
